Measurements as given in the supplement of paper PMC3334620.
Over roughly 33,000 sequences, “E-score (-0.5 to 0.5)” has its median near -0.041; the highest 2% begin near 0.37. Some of the results follow.

target: T1, Ecm22 (UniProt Q05958); assay: PBM E-score (8-mer binding enrichment) (E-score (-0.5 to 0.5)); higher = stronger / more preferred TF binding; most listed sequences are background and not binding sites; details: protein concentration: 200 nM; construct: GST-full length
T1 sequence: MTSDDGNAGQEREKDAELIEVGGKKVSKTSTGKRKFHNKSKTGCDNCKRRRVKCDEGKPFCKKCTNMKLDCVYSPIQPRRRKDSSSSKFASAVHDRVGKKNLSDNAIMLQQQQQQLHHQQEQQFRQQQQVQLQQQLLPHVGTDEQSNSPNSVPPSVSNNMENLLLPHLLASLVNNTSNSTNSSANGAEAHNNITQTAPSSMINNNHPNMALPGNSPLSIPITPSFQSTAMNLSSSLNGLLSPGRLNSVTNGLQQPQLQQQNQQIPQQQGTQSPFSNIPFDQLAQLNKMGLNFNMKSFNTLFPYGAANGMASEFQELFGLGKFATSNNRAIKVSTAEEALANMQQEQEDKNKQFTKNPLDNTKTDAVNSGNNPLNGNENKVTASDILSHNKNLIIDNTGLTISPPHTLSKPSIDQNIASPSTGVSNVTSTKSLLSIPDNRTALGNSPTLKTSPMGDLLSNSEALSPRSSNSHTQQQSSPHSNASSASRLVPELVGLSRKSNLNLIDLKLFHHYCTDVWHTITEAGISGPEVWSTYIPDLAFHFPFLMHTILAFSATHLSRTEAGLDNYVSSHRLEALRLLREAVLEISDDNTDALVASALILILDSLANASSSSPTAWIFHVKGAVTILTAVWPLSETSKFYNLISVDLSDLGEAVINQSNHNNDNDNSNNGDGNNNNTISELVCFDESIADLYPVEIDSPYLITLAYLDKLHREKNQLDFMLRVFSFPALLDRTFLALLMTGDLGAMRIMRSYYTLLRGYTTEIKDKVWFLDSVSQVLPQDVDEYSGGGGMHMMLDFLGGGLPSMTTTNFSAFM
Procedure: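 Universal 'all 10-mer' protein binding microarrays (Agilent AMADID 015681) probed with GST-tagged S. cerevisiae TFs (full-length or DBD) made by in vitro transcription/translation (PURExpress), about 100-200 nM. Bound TF was detected with fluorescent anti-GST. Each ungapped 8-mer (which stands for itself and its reverse complement) is scored by the PBM enrichment score (E-score), a modified Wilcoxon-Mann-Whitney statistic from -0.5 to +0.5, computed with the Universal PBM Analysis Suite. Scale: above 0.35 generally sequence-specific binding.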

Sequence	PBM E-score
AGGAACCT	-0.145
ATGTTATA	0.0753
ACTCGCTC	0.354
ATAGGCAA	-0.116
CGTCGGAA	0.203
AGGCTTAA	-0.168
AAATGAAA	0.176
CGACTCGA	0.0317
ATCTCCGC	-0.0922
GGTATGTA	-0.183
CAAGAACA	-0.0215
CCACTTGC	-0.205
ACCCATCT	-0.0835
CTCCGAAA	-0.0756
CGCAAAGC	0.202
ACGAGGGA	0.41
GAGATGGA	-0.0984
CTGTCTCA	-0.242
AGGGCCAC	-0.167
AGTGCGGA	0.0323
CCGGCTCC	0.00262
CAATATCC	-0.0923
GTTCGACA	0.0668
AGCTTTGG	-0.0792

Sequence	PBM E-score
AAACAGAT	0.0559
ACGTAATG	0.0934
ATCCCTGA	-0.129
AGGGTCCC	-0.283
CCGAAAAG	0.147
GCGAAGCC	0.0234
GTGCCAAC	-0.0419
ATGGGAGA	-0.319
CTGTTTCA	-0.104
TAAACTTA	-0.0492
AGGCGCGG	-0.0439
GGAGAACC	-0.255
AAAATCGT	0.213
CAGAGCGC	-0.154
AGATCCAT	-0.0395
CATTGGGC	-0.153
ATCCTTCA	-0.0751
GACTTCAC	-0.121
GCGAGCGC	0.134
GCACTCAC	-0.182
GGCTTAAA	0.014
CTCTCAAA	0.0153
CCACGTTC	0.0325
ATAACAGC	-0.0009

Sequence	PBM E-score
TGAAGCCA	-0.0959
AAGCTGGT	-0.0493
ATTGCTTG	-0.176
GGTAAGGA	-0.19
CGTCCACC	-0.214
AAAACAAT	-0.114
GTCCAAGA	-0.278
TCACGCCA	0.0179
AATAATAA	0.0368
AAGTACCA	0.145
AGACTCCA	-0.203
TATAGGCA	-0.143
TAGTTGAA	0.0666
AATTAAAT	-0.222
CCATTTCC	-0.0754
CAGCCGAG	-0.00474
GCGTTTTA	0.178
CACGATAC	0.175
CCCAGCCC	-0.203
CCGCTAAA	0.122
AAGTATCG	-0.0609
GGATCCAA	-0.156
GGAACGTA	0.353
CGCGGAAG	-0.132

Sequence	PBM E-score
GCATTGCC	0.079
AATAACTC	-0.0973
ACCGGTGC	-0.166
AATAGTTC	0.0189
AGGCTAGG	-0.265
AAGGCGGT	0.0181
CGATCATC	0.122
TTGCACAA	-0.0659
AGCATGTG	-0.07
CATGATGA	-0.011
TACGCGAA	0.32
AGGTCTTG	-0.185
AAGGGGGA	-0.0884
ATTGTATA	0.112
CGGAGGAA	-0.0523
TGGCAACA	-0.201
AATCCAGT	-0.132
CAACAGGC	-0.174
TATTTCAA	0.0101
CCTTAGGA	-0.182
CGCCCAGA	-0.104
TGAGCGCA	-0.0381
